Measured values: the supplement of paper PMC11125491
± gives the standard deviation of the averaged measurements. Growth of baker's yeast expressing single-residue variants of Pneumocystis jirovecii dihydrofolate reductase in 8.8 or 44 µM methotrexate (about 75% and 90% inhibition of the wild type). Selection coefficient per generation; 0 = like wild type, above 0 = less sensitive, below 0 = more sensitive or loss of function. No active / inactive call per row; the paper calls resistant above 0.220 (8.8 µM) or 0.243 (44 µM) together with a significance test. At 44 µM about 15% of codons end with one read or none, so the lowest values are floors (replicate rank correlation 0.74; 0.94 at 8.8 µM).

B1: UniProt A0EPZ9; numbered along this chain (parent)
chain: MDWQKSLTLIVALTLSRGIGLKNDLPWKLKSDMMFFSRVTSGLLVTRSTGQMNVVLMGRKTWESLPAHSRPLKNRINVVISRQEVLDLGGGAYHARSLDDALALLSQIYDSTSKIQLNRVFVIGGGELCKAAMEHSRLNRIIATVIHNEVDCDVFFPIDFRSSQSCLPWRKQDHSVLEAWVGSKVPQGKINENGFIYEFEMWIRDI

Variants of: B1
Assay: selection coefficient against synonymous wild-type codons (log2 per generation); higher = faster growth than wild type
Details: with Saccharomyces cerevisiae carrying the variant on a plasmid
Method: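 Pooled growth of yeast carrying single-residue variants of P. jirovecii dihydrofolate reductase (own DFR1 gene intact), two passages at 30 °C, three cultures, sequenced before and after. Codons with under 15 starting reads are left out; codons of one change are averaged.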

Row | Variant | selection coefficient against synonymous wild-type codons (log2) (methotrexate 8.8 µM) | selection coefficient against synonymous wild-type codons (log2) (methotrexate 44 µM)
1 | MDWQKSLTLIVALTLSRGIGLKNDLPWKLKSDMMFFSRVTSGLLVTRSTGQMNVVLMGRKTWESLPAHSRPLKNRINVVISRQEVLDLGGGAYHARSLDDALALLSQIYDSTSKIQLNRVFVIGGGELCKAAMEHSRLNRIIATVIHNEVDCDVFFPIDFRSSQSCLPWRKQDHSVLWAWVGSKVPQGKINENGFIYEFEMWIRDI [E178W] | -0.536 ± 0.12 | -0.211 ± 0.029
2 | MDWQKSLTLIVALTLSRGIGLKNDLPWKLKSDMMFFSRVTSGLLVTRSTGQMNVVLMGRKTWESLPAHSRPLKNRINVVISRQEVLDLGGGAYHARSLDDALALLSQIYDSTSKIQLNRVFVIGGGELCKAAMEHSRLNRIIATVIHNEVDCDVFFPIDFRSSQSCLPWRKQDHSVLYAWVGSKVPQGKINENGFIYEFEMWIRDI [E178Y] | -0.561 ± 0.0074 | -0.326 ± 0.051
3 | MDWQKSLTLIVALTLSRGIGLKNDLPWKLKSDMMFFSRVTSGLLVTRSTGQMNVVLMGRKTWESLPAHSRPLKNRINVVISRQEVLDLGGGAYHARSLDDALALLSQIYDSTSKIQLNRVFVIGGGELCKAAMEHSRLNRIIATVIHNEVDCDVFFPIDFRSSQSCLPWRKQDHSVLECWVGSKVPQGKINENGFIYEFEMWIRDI [A179C] | -0.228 ± 0.098 | -0.234 ± 0.14
4 | MDWQKSLTLIVALTLSRGIGLKNDLPWKLKSDMMFFSRVTSGLLVTRSTGQMNVVLMGRKTWESLPAHSRPLKNRINVVISRQEVLDLGGGAYHARSLDDALALLSQIYDSTSKIQLNRVFVIGGGELCKAAMEHSRLNRIIATVIHNEVDCDVFFPIDFRSSQSCLPWRKQDHSVLEDWVGSKVPQGKINENGFIYEFEMWIRDI [A179D] | 0.102 ± 0.032 | 0.0674 ± 0.036
5 | MDWQKSLTLIVALTLSRGIGLKNDLPWKLKSDMMFFSRVTSGLLVTRSTGQMNVVLMGRKTWESLPAHSRPLKNRINVVISRQEVLDLGGGAYHARSLDDALALLSQIYDSTSKIQLNRVFVIGGGELCKAAMEHSRLNRIIATVIHNEVDCDVFFPIDFRSSQSCLPWRKQDHSVLEEWVGSKVPQGKINENGFIYEFEMWIRDI [A179E] | 0.121 ± 0.036 | 0.12 ± 0.041
6 | MDWQKSLTLIVALTLSRGIGLKNDLPWKLKSDMMFFSRVTSGLLVTRSTGQMNVVLMGRKTWESLPAHSRPLKNRINVVISRQEVLDLGGGAYHARSLDDALALLSQIYDSTSKIQLNRVFVIGGGELCKAAMEHSRLNRIIATVIHNEVDCDVFFPIDFRSSQSCLPWRKQDHSVLEFWVGSKVPQGKINENGFIYEFEMWIRDI [A179F] | -0.341 ± 0.024 | -0.408 ± 0.063
7 | MDWQKSLTLIVALTLSRGIGLKNDLPWKLKSDMMFFSRVTSGLLVTRSTGQMNVVLMGRKTWESLPAHSRPLKNRINVVISRQEVLDLGGGAYHARSLDDALALLSQIYDSTSKIQLNRVFVIGGGELCKAAMEHSRLNRIIATVIHNEVDCDVFFPIDFRSSQSCLPWRKQDHSVLEGWVGSKVPQGKINENGFIYEFEMWIRDI [A179G] | 0.047 ± 0.041 | -0.0244 ± 0.093
8 | MDWQKSLTLIVALTLSRGIGLKNDLPWKLKSDMMFFSRVTSGLLVTRSTGQMNVVLMGRKTWESLPAHSRPLKNRINVVISRQEVLDLGGGAYHARSLDDALALLSQIYDSTSKIQLNRVFVIGGGELCKAAMEHSRLNRIIATVIHNEVDCDVFFPIDFRSSQSCLPWRKQDHSVLEIWVGSKVPQGKINENGFIYEFEMWIRDI [A179I] | -0.451 ± 0.04 | -0.38 ± 0.14
9 | MDWQKSLTLIVALTLSRGIGLKNDLPWKLKSDMMFFSRVTSGLLVTRSTGQMNVVLMGRKTWESLPAHSRPLKNRINVVISRQEVLDLGGGAYHARSLDDALALLSQIYDSTSKIQLNRVFVIGGGELCKAAMEHSRLNRIIATVIHNEVDCDVFFPIDFRSSQSCLPWRKQDHSVLEKWVGSKVPQGKINENGFIYEFEMWIRDI [A179K] | 0.128 ± 0.018 | 0.0285 ± 0.013
10 | MDWQKSLTLIVALTLSRGIGLKNDLPWKLKSDMMFFSRVTSGLLVTRSTGQMNVVLMGRKTWESLPAHSRPLKNRINVVISRQEVLDLGGGAYHARSLDDALALLSQIYDSTSKIQLNRVFVIGGGELCKAAMEHSRLNRIIATVIHNEVDCDVFFPIDFRSSQSCLPWRKQDHSVLELWVGSKVPQGKINENGFIYEFEMWIRDI [A179L] | -0.328 ± 0.11 | -0.348 ± 0.18
11 | MDWQKSLTLIVALTLSRGIGLKNDLPWKLKSDMMFFSRVTSGLLVTRSTGQMNVVLMGRKTWESLPAHSRPLKNRINVVISRQEVLDLGGGAYHARSLDDALALLSQIYDSTSKIQLNRVFVIGGGELCKAAMEHSRLNRIIATVIHNEVDCDVFFPIDFRSSQSCLPWRKQDHSVLENWVGSKVPQGKINENGFIYEFEMWIRDI [A179N] | 0.0539 ± 0.024 | -0.0563 ± 0.12
12 | MDWQKSLTLIVALTLSRGIGLKNDLPWKLKSDMMFFSRVTSGLLVTRSTGQMNVVLMGRKTWESLPAHSRPLKNRINVVISRQEVLDLGGGAYHARSLDDALALLSQIYDSTSKIQLNRVFVIGGGELCKAAMEHSRLNRIIATVIHNEVDCDVFFPIDFRSSQSCLPWRKQDHSVLERWVGSKVPQGKINENGFIYEFEMWIRDI [A179R] | -0.0133 ± 0.022 | -0.123 ± 0.27
13 | MDWQKSLTLIVALTLSRGIGLKNDLPWKLKSDMMFFSRVTSGLLVTRSTGQMNVVLMGRKTWESLPAHSRPLKNRINVVISRQEVLDLGGGAYHARSLDDALALLSQIYDSTSKIQLNRVFVIGGGELCKAAMEHSRLNRIIATVIHNEVDCDVFFPIDFRSSQSCLPWRKQDHSVLESWVGSKVPQGKINENGFIYEFEMWIRDI [A179S] | 0.00351 ± 0.046 | -0.00683 ± 0.047
14 | MDWQKSLTLIVALTLSRGIGLKNDLPWKLKSDMMFFSRVTSGLLVTRSTGQMNVVLMGRKTWESLPAHSRPLKNRINVVISRQEVLDLGGGAYHARSLDDALALLSQIYDSTSKIQLNRVFVIGGGELCKAAMEHSRLNRIIATVIHNEVDCDVFFPIDFRSSQSCLPWRKQDHSVLETWVGSKVPQGKINENGFIYEFEMWIRDI [A179T] | 0.0191 ± 0.025 | 0.0805 ± 0.091
15 | MDWQKSLTLIVALTLSRGIGLKNDLPWKLKSDMMFFSRVTSGLLVTRSTGQMNVVLMGRKTWESLPAHSRPLKNRINVVISRQEVLDLGGGAYHARSLDDALALLSQIYDSTSKIQLNRVFVIGGGELCKAAMEHSRLNRIIATVIHNEVDCDVFFPIDFRSSQSCLPWRKQDHSVLEVWVGSKVPQGKINENGFIYEFEMWIRDI [A179V] | -0.316 ± 0.044 | -0.283 ± 0.12
